# ± gives the standard error. Variants at the background level are over-represented here.
# B1: glmS ribozyme (parent)
# chain: AUAAAAGCGCCAGAACUACAGAAAUGUAGUUGACGAGGAGGAGGUUUAUCGAAUUUUCGGCGGAUGCCUCCAAA
# What was measured:
# Settings in all cases: with glucosamine-6-phosphate
# [1] = variants of: B1; assay: self-cleavage kobs at 40 uM GlcN6P; higher = faster cleavage; RNA array
# Procedure, shortened: (§1)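 On sequenced MiSeq chips, barcoded ribozyme variants were made in situ by E. coli RNA polymerase and followed at 37 °C through a hybridised Cy3 probe. Glucosamine-6-phosphate was flowed in at 40 μM to 10 mM in HEPES/KCl/Mg(OAc)2 buffer. Exponential fits to normalised per-tile medians gave kobs, and weighted Michaelis–Menten fits gave kcat and KM.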
# [2] = variants of: B1; assay: self-cleavage kobs at 640 uM GlcN6P; higher = faster cleavage; RNA array
# Procedure, shortened: as §1
# [3] = variants of: B1; assay: self-cleavage kobs at 2500 uM GlcN6P; higher = faster cleavage; RNA array
# Procedure, shortened: as §1
# [4] = variants of: B1; assay: self-cleavage kobs at 10000 uM GlcN6P; higher = faster cleavage; RNA array
# Procedure, shortened: as §1
# [5] = variants of: B1; assay: self-cleavage kobs at 160 uM GlcN6P; higher = faster cleavage; RNA array
# Procedure, shortened: as §1
Variant,self-cleavage kobs at 40 uM GlcN6P [1] [s⁻¹],self-cleavage kobs at 640 uM GlcN6P [2] [s⁻¹],self-cleavage kobs at 2500 uM GlcN6P [3] [s⁻¹],self-cleavage kobs at 10000 uM GlcN6P [4] [s⁻¹],self-cleavage kobs at 160 uM GlcN6P [5] [s⁻¹]
G35U U46A,< 1e-05,< 1e-05,< 1e-05,< 1e-05,
C16G G29A U49C,< 1e-05,,,< 1e-05,
G29A U30C A36C G44U U56C U57G,< 1e-05,< 1e-05,< 1e-05,,
G29A A48U G51C C61U,< 1e-05,,,,
A36C C58A U65A C68G,0.000139 ± 4.3e-05,,,,
A33C G62U,< 1e-05,,< 1e-05,< 1e-05,
U31C A48C,< 1e-05,,,,
A36G A42G,< 1e-05,< 1e-05,,,< 1e-05
C34U G66A,< 1e-05,< 1e-05,,< 1e-05,
G29C U30C,< 1e-05,< 1e-05,,,
G38A G44U,< 1e-05,< 1e-05,< 1e-05,< 1e-05,< 1e-05
A15U G60U C70G,< 1e-05,,,,
A15U G29U G60C,< 1e-05,,,,
A15U A42C C68G,< 1e-05,,,,
G37U G38C,< 1e-05,,< 1e-05,,< 1e-05
A36G A39U G44C,< 1e-05,,,< 1e-05,
G32C U65G,< 1e-05,< 1e-05,,,
A33U G35A U65A,< 1e-05,,,,
A36U A53U G60A U69A,< 1e-05,,,,
C34G A53G U56G C67U,< 1e-05,,,,
G35C A36G,< 1e-05,< 1e-05,< 1e-05,< 1e-05,< 1e-05
C34U A64U,< 1e-05,< 1e-05,< 1e-05,,
A33G C58U,< 1e-05,,< 1e-05,< 1e-05,
A15G G51C U54G,< 1e-05,,< 1e-05,,

Variant,self-cleavage kobs at 40 uM GlcN6P [1] [s⁻¹],self-cleavage kobs at 640 uM GlcN6P [2] [s⁻¹],self-cleavage kobs at 2500 uM GlcN6P [3] [s⁻¹],self-cleavage kobs at 10000 uM GlcN6P [4] [s⁻¹],self-cleavage kobs at 160 uM GlcN6P [5] [s⁻¹]
U31C C61U,< 1e-05,< 1e-05,,,
U31C A53G C70U,0.000212 ± 4.6e-05,0.00265 ± 0.00055,0.00272 ± 0.00079,,
A36C G38C A48U,< 1e-05,,< 1e-05,,
G29C C58G,< 1e-05,,6.23e-05 ± 2.1e-05,4.93e-05 ± 1.5e-05,
G29C G35A,< 1e-05,< 1e-05,< 1e-05,< 1e-05,< 1e-05
A36G A48U,< 1e-05,< 1e-05,< 1e-05,< 1e-05,< 1e-05
U31C U55C,8.92e-05 ± 2.1e-05,0.00116 ± 0.00021,0.00284 ± 0.00079,0.00585 ± 0.00073,0.000317 ± 6.4e-05
C34U G38A,< 1e-05,< 1e-05,,< 1e-05,
A33U A53C,< 1e-05,< 1e-05,< 1e-05,< 1e-05,
C34A G62U,< 1e-05,< 1e-05,< 1e-05,,
C16U U54C,0.000813 ± 0.00013,0.00641 ± 0.001,0.00606 ± 0.0012,0.0254 ± 0.0047,0.00146 ± 0.00024
G35U G44U,< 1e-05,< 1e-05,< 1e-05,< 1e-05,< 1e-05
U30A A64C,< 1e-05,,,,< 1e-05
A15U G29A C34G,< 1e-05,,,,
U31G G43C,< 1e-05,< 1e-05,< 1e-05,,< 1e-05
U31A A39U,0.000161 ± 2.9e-05,0.00196 ± 0.00029,0.00802 ± 0.0015,0.00871 ± 0.0014,0.000508 ± 8.4e-05
A36C G51C G59A C68A,< 1e-05,,,< 1e-05,
U31A C34U,< 1e-05,< 1e-05,< 1e-05,,
A36C U45C U46G,< 1e-05,,,,
U31G G40U,3.85e-05 ± 7.6e-06,0.000515 ± 5.8e-05,0.00119 ± 0.00013,0.00183 ± 0.0002,0.000115 ± 1.6e-05
G37U U56A,< 1e-05,,,< 1e-05,
U30C G40C U49G G51A,< 1e-05,,,< 1e-05,
G37C A48C C50A U69A,< 1e-05,,,,

# Source: the supplement of paper PMC7125110
